# In paper PMC4336329 (PLoS ONE, 2015):
# Hit rate of the full screen: of about 310,000 compounds, about 2,200 (0.71%) showed an effect of 50% or more. Effects have a minus sign here. The list shows a part of the results.
# Target: human ether-à-go-go-related gene (hERG) potassium channel (human, UniProt Q12809)
# Test: primary screen, population patch clamp on CHO cells stably expressing hERG
# Chain of human ether-à-go-go-related gene (hERG) potassium channel (Q12809 whole entry, looked up): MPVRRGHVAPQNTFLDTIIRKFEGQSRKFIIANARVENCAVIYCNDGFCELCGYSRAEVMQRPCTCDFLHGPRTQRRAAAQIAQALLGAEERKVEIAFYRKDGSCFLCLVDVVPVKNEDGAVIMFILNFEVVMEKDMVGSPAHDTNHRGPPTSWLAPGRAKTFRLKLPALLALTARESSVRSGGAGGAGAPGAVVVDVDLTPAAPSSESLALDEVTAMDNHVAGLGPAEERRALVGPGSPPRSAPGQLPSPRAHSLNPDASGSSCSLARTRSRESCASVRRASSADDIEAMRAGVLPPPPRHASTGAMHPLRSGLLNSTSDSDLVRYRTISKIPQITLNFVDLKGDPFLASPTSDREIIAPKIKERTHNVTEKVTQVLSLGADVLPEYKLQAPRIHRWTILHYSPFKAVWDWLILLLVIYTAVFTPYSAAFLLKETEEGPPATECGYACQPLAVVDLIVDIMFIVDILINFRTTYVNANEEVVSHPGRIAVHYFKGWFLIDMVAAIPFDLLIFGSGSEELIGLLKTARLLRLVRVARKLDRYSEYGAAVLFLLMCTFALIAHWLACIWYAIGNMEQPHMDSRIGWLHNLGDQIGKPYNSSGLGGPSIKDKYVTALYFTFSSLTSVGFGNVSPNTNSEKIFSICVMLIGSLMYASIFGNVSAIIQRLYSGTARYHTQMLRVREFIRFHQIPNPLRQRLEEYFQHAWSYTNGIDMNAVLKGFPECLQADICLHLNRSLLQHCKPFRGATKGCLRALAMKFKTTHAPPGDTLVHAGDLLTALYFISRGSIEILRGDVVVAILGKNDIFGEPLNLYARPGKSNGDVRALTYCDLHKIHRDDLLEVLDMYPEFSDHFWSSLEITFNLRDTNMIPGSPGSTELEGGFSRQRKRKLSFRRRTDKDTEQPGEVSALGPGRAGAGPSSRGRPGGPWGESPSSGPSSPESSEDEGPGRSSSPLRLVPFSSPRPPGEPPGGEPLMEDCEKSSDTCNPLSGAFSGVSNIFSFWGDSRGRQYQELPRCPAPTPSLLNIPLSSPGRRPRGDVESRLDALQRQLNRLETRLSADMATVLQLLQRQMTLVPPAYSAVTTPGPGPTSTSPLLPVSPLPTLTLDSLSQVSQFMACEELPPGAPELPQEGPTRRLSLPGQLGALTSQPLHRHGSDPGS
row,Structure (SMILES),"hERG current change (%, negative = inhibition) at 1uM"
1,CC(=O)Nc1sc2c(c1C(c1ccc(Cl)cc1)N1CCOCC1)CCCC2 (centres unmarked),11.4%
2,COc1cc(OC)c(NC(=O)Cn2cccc2)cc1Cl,13.5%
3,O=C(c1ccc(-c2ccccc2)cc1)N1CCCC1,19.1%
4,O=[N+]([O-])c1ccc(C2=CSC3=NCCN23)cc1,-0.955%
5,Cc1csc(SCC(=O)Nc2oc(C)c3c(C)n[nH]c(=O)c23)n1,1.18%
6,CC(NCC(=O)Nc1cc(S(=O)(=O)N2CCOCC2)ccc1N1CCOCC1)c1ccco1 (centres unmarked),0.0139%
7,Cc1ccc(NC(=O)C2CC(=O)n3c(nc4ccccc43)N2)cc1 (centres unmarked),14.1%
8,COc1cccc(CC(=O)OCC(=O)N(C)CC(=O)Nc2ccc(F)cc2)c1,-2.81%
9,CCN(CC)c1ccc(C2C(C(=O)OC)=C(C)NC(C)=C2C(=O)OC)cc1,-6.67%
10,CC(=O)Nc1ccc(-c2cn3ccsc3n2)cc1,11.8%
11,CCOC(=O)C1=C(CS(=O)(=O)c2ccccc2)NC(=O)NC1c1cc(OC)c(O)c(OC)c1 (centres unmarked),14.2%
12,Cc1cc(C(=O)OCC(=O)Nc2ncc(C(F)(F)F)cc2Cl)c(C)o1,9.64%
13,O=C(CN(C(=O)CNC(=O)c1cccs1)c1ccc(F)cc1)NC1CCCC1,9.51%
14,Cc1c(NC(=O)CNCc2ccc3c(c2)OCO3)c(=O)n(-c2ccccc2)n1C.O=C(O)C(=O)O,2.82%
15,Cc1ccc(/C=N/N=C2/NC(=O)C(CC(=O)N3CCOCC3)S2)cc1 (centres unmarked),12.4%
16,CC1Cc2ccccc2N1C(=S)Nc1ccc(S(N)(=O)=O)cc1 (centres unmarked),3.88%
17,Cc1nn(-c2ccccc2)c2sc(C(=O)N3CCCCC3)cc12,9.61%
18,Cc1sc2c(c1C)C(=O)/C(=C\Nc1ccccn1)S(=O)(=O)N2C,12%
19,CC(=O)N1[C@H](Cc2ccccc2)C=C[C@]1(C)C(=O)NCCc1c[nH]c2ccccc12,14.7%

row,Structure (SMILES),"hERG current change (%, negative = inhibition) at 1uM"
1,O=C(COC(=O)c1ccccc1Nc1ccc(SC(F)F)cc1)NC1CC1,2.26%
2,Cn1c(COc2ccccc2)nnc1SCC(=O)NCc1ccccc1,-4.41%
3,Cn1nnc(NC(=O)C(c2ccccc2)c2ccccc2)n1,13.5%
4,Cn1cccc1/C=N/NC(=O)Cn1cnc2ccccc21,-1.94%
5,O=C(O)c1cccc(S(=O)(=O)N2CCOCC2)c1,-6.4%
6,COC(=O)c1ccc(-c2noc(CN(Cc3ccccn3)CC3CCCO3)n2)cc1 (centres unmarked),-6.54%
7,O=C(NC1CCCCC1)C1CCC(=O)N(Cc2cccc(C(F)(F)F)c2)C1 (centres unmarked),-11.3%
8,O=C(N/C(=C\c1ccc(Br)cc1)C(=O)N1CCCC1)c1cccs1,4.96%
9,COc1ccc(CN(Cc2ccc(C(=O)O)cc2)C(=S)Nc2ccccc2Cl)cc1OC,13.9%
10,COc1cc(S(=O)(=O)NC2CCCCC2C)ccc1-n1cnnn1 (centres unmarked),4.35%
11,COc1ccc(/C=C/C(=O)Nc2ccc(-n3nncc3-c3ccc(OC)c(OC)c3)cc2)cc1OC,2.44%
12,O=C(NC(=S)Nc1ccc(N2CCN(C(=O)c3ccccc3)CC2)cc1)c1cccs1,12.1%
13,COCCN(C(=O)c1cccc(-n2cnnn2)c1)c1c(N)n(CC(C)C)c(=O)[nH]c1=O,7.31%
14,N#C/C(=C1/CCCCCN1)c1nnc2n1CCCCC2,16.3%
15,CSc1ccccc1NC(=O)CN(C)C(=O)CCc1c[nH]c2ccccc12,8.87%
16,N/C(=N\OC(=O)CCn1cccc(C(F)(F)F)c1=O)c1ccc(OC(F)(F)F)cc1,3.35%
17,O=C(CCc1ccccc1)OCC(=O)c1cccc([N+](=O)[O-])c1,13.5%
18,CN(c1ccc(C(=O)N2CCN(Cc3ccccc3)CC2)cc1)S(=O)(=O)c1ccc(Cl)cc1,-2.89%
19,C=Cn1cc[n+](CC(=O)c2ccc(Cl)cc2)c1.[Br-],14.4%

row,Structure (SMILES),"hERG current change (%, negative = inhibition) at 1uM"
1,O=C(Nc1ccc(Cl)cc1)c1cc(S(=O)(=O)N2CCOCC2)cs1,-7.43%
2,O=C(OCC(=O)N1CCCCCC1)c1cnc(Cl)c(Cl)c1,7.98%
3,CCOc1ccc(C)cc1S(=O)(=O)n1nc(C)cc1C,2.05%
4,O=C(CNC(=O)CNC(=O)c1ccc(Cl)cc1Cl)NCc1cccc(Cl)c1,8.83%
5,COc1ccc(C)cc1NC(=O)c1nnn(Cc2cccc(F)c2)c1N,6.27%
6,Oc1ccc(-n2nnnc2SCc2c(F)cccc2Cl)cc1,8.66%
7,O=C(NCc1ccccc1F)c1ccc(S(=O)(=O)N2CCCCCC2)cc1,1.6%
8,O=c1[nH]c(/C=C\c2ccc(O)c(O)c2)nc(O)c1[N+](=O)[O-],13.1%
9,Cc1ccc(O)c(C(=O)c2cnc3c(c2)CN(CCC(C)C)C(=O)N3)c1,16.6%
10,Cn1c(CNS(=O)(=O)c2ccc(Cl)cc2)cc(=O)n(C)c1=O,12.2%
11,Cc1nn2c(NCC(C)C)c3c(nc2c1-c1ccccc1)CCC3,7.45%
12,CC1CCCCN1C(=O)COC(=O)CNC(=O)c1ccc(Cl)cc1Cl (centres unmarked),11.3%
13,Cc1cc(C)c2c(CC(=O)NC3CCS(=O)(=O)C3)coc2c1 (centres unmarked),15.9%
14,CC1CCN(S(=O)(=O)c2nnc(NC(=O)COc3ccccc3F)s2)CC1,4.05%
15,Clc1ccc(OCc2nc(-c3ccncc3)no2)c(Cl)c1,7.81%
16,COc1ccccc1Nc1nnc(SCC(=O)c2cc(C)n(CC3CCCO3)c2C)s1 (centres unmarked),9.14%
17,COC(=O)C1=C(N)OC2=C(C(=O)CCC2)C1c1ccccc1OC (centres unmarked),12.5%
18,COc1ccc(N(CC(=O)NCCc2ccc(C)cc2)S(=O)(=O)c2c(C)noc2C)cc1,14.2%
